In all, about 200,000 compounds went through this assay and about 4,500 (2.2%) were called active. Inconclusive means that the source gave no clear call. Such entries were picked first, then a sample of the others. Calls come from the whole dose curve; as a rule, active = well fitted inhibition curve with a large enough effect; inconclusive = small, poorly fitted or top-dose-only effect, or effect the other way; inactive = flat fitted curve, though single readings scatter. Where the call is inconclusive, the potency comes from a doubtful curve fit.
Each compound was assayed against Cruzipain (Trypanosoma cruzi) (UniProt P25779) (assay: qHTS Assay for Promiscuous and Specific Inhibitors of Cruzain (without detergent)). Settings: purified cruzain, Z-FR-AMC fluorescence, no detergent.
UniProt P25779, sequence (P25779 whole entry, looked up): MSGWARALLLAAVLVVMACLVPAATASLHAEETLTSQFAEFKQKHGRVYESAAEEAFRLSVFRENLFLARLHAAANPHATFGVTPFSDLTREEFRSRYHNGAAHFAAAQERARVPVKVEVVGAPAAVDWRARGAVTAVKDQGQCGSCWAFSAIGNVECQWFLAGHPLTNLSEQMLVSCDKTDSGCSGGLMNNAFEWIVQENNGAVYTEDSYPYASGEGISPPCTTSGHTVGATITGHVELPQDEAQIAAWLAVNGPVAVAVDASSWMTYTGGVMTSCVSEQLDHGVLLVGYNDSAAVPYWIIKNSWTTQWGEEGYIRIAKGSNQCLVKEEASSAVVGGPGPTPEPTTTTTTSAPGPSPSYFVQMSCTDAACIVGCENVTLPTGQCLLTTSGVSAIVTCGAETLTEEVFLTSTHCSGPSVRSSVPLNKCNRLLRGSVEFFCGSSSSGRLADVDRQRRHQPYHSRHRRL
Outline: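 Purified cruzain at 1.5 nM, pre-incubated 15 min with compound at room temperature in 100 mM sodium acetate pH 5.5, 5 mM DTT, 0.00005% Triton X-100. Reaction started with 2 uM Z-FR-AMC; AMC fluorescence increase over 60 s gives rate.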
Note: nearly all actives have a fitted effect of over 40% in size.
Potency is the fitted concentration of half-maximal effect; tags give direction and shape of the fitted curve.
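Throughout, for max response, negative = inhibition: plate controls were enzyme without inhibitor for no effect and buffer without enzyme for full effect.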

SMILES | Potency | max response, negative = inhibition
CCOC(=O)c1c(-c2ccc(OC)cc2)csc1NC(=O)CCN1C(=O)c2ccccc2C1=O | active: 15.8 µM | –
O=C(NCc1ccco1)C1CCCN(S(=O)(=O)c2ccc(-n3cnnn3)cc2)C1 (stereo unspecified) | inconclusive: 39.8 µM [activator, single point] | –
Cc1ccccc1NC(=O)Nc1nc2ccc(S(C)(=O)=O)cc2s1 | inconclusive: 39.8 µM [inhibitor, single point] | –
COc1ccc(-c2noc(CCC(=O)Nc3ccc(C(F)(F)F)cc3)n2)cc1 | inconclusive: 25.1 µM [inhibitor, single point] | –
CCCn1c(=O)c(C(=O)NCc2ccccn2)c(O)c2ccccc21 | inconclusive: 39.8 µM [activator, single point] | –
Cc1cccc(N2CCN(C3=NC(=O)/C(=C\c4cn[nH]c4-c4ccccc4)S3)CC2)c1 | inconclusive: 31.6 µM [inhibitor, single point] | –
Cc1cc(C)cc(-n2c(N)c(C(=O)Nc3c(C)n(C)n(-c4ccccc4)c3=O)c3nc4ccccc4nc32)c1 | inconclusive: 10 µM [activator, partial curve] | –
Cc1ccc(NC(=O)c2ccc(OC(=O)CCN3C(=O)c4ccccc4C3=O)cc2)cc1 | inconclusive: 12.6 µM [inhibitor, partial curve] | –
CCSC1=C(C#N)C(c2cccc(OC)c2)CC(=O)N1 (stereo unspecified) | inconclusive: 39.8 µM [inhibitor, single point] | –
O=C(O)C(Oc1nc(=S)[nH]c(=S)[nH]1)(c1ccc(Cl)cc1)c1ccc(Cl)cc1 | – | inactive: 0.758%
COc1cc2c(C(=O)NCc3ccc(C)o3)cn(CC(C)C)c(=O)c2cc1OC | inconclusive: 39.8 µM [activator, single point] | –
COc1ccccc1N1CCN(C(=O)CN2C(=O)COc3ccc(S(=O)(=O)N4CCCCCC4)cc32)CC1 | inconclusive: 39.8 µM [activator, single point] | –
CCN(CC)CCn1c(NC(=O)c2ccc(Cl)cc2)nc2ccccc21 | – | inactive: 2.66%
Cc1ccc(-c2csc(C3C(N)=NC(S)=C(C#N)C34CCCCC4)n2)cc1 (stereo unspecified) | active: 15.8 µM | –
O=C(Cc1ccccc1)NC1CC(=O)N(c2ccccc2)C1 (stereo unspecified) | – | inactive: 12.1%
Cc1ccc(N2C(=O)/C(=C\c3ccc(C(C)C)cc3)N=C2SC2CCOC2=O)cc1 (stereo unspecified) | inconclusive: 39.8 µM [inhibitor, single point] | –
Cc1ccc2occ(CC(=O)N(Cc3ccc(Cl)cc3)C3CCS(=O)(=O)C3)c2c1 (stereo unspecified) | inconclusive: 39.8 µM [activator, single point] | –
CCOC(=O)c1ccccc1NC(=O)CSc1ccc(-c2cccs2)nn1 | – | inactive: -6.71%
O=C(NCSc1ccnc(SCNC(=O)c2ccccc2)n1)c1ccccc1 | inconclusive: 39.8 µM [inhibitor, single point] | –
COc1cccc(CNC(=O)c2ccc3c(c2)c(C)c(C)n3Cc2ccccc2)c1OC | inconclusive: 31.6 µM [inhibitor, single point] | –
Brc1ccc(-c2nnc(-c3ccc4c(c3)OCO4)o2)o1 | inconclusive: 39.8 µM [inhibitor, single point] | –

SMILES | Potency | max response, negative = inhibition
C=CCn1c(CCC(=O)Nc2ccc(C)c(Cl)c2)nnc1SCC(=O)Nc1ccccc1C | inconclusive: 39.8 µM [activator, single point] | –
CC(C)(C)C(=O)Nc1ccc2nc(SCC(=O)N3CCOCC3)sc2c1 | – | inactive: -11%
O=C(Cn1nnc(-c2cc(Cl)ccc2-n2cnnn2)n1)N1CCCc2ccccc21 | inconclusive: 7.94 µM [inhibitor, single point] | –
CCOC(=O)c1cc2c(=O)n3ccccc3nc2n(C(C)C)c1=NC(=O)c1cc2ccccc2o1 | inconclusive: 3.98 µM [activator, single point] | –
CC(=O)CC(=O)Nc1ccccc1 | – | inactive: 0.99%
Cc1cc(C)cc(NC(=O)Cn2cc(S(=O)(=O)NC(C)(C)C)c(S(=O)(=O)NC(C)(C)C)c2)c1 | – | inactive: 7.73%
COc1ccc(C(=O)NC(C)c2nnc(SCc3ccc(Cl)c(Cl)c3)n2C)cc1 (stereo unspecified) | inconclusive: 20 µM [activator, single point] | –
CCCn1c(SCC(=O)N2CCc3ccccc32)nnc1-c1ccco1 | inconclusive: 31.6 µM [activator, single point] | –
Fc1ccc(Nc2ncnc3onc(-c4cccc(Cl)c4)c23)c(F)c1 | – | inactive: 9.67%
COC(=O)CN1C(=S)N(Cc2ccccc2)C(=O)C1CC(=O)Nc1ccc(Br)cc1 (stereo unspecified) | inconclusive: 39.8 µM [inhibitor, single point] | –
COc1ccccc1NC(=O)Cn1c(SCC(=O)N(C)c2ccccc2)nc2ccccc21 | – | inactive: 22.9%
O=C(c1cc(N2C(=O)C3C4CCC(C4)C3C2=O)ccc1Cl)N1CCN(c2ccccc2F)CC1 (stereo unspecified) | inconclusive: 39.8 µM [activator, single point] | –
O=C(Nc1nc2ccc3ccccc3c2s1)c1ccc(N2CCCCC2)c([N+](=O)[O-])c1 | active: 6.31 µM | –
COc1cc(/C=C2/SC(=S)N(CC(=O)Nc3nc4ccccc4s3)C2=O)cc(OC)c1OC | active: 12.6 µM | –
O=C(O)CN(CCN(CC(=O)O)CC(=O)O)CC(=O)O.[Cu] | – | inactive: 7.03%
O=C(COc1ccccc1-c1ccccc1)NCCN1C(=O)S/C(=C\c2cccnc2)C1=O | inconclusive: 20 µM [activator, partial curve] | –
CCc1ccccc1NC(c1nnc(-c2cccc(F)c2)o1)c1ccc(F)cc1Cl (stereo unspecified) | inconclusive: 20 µM [inhibitor, single point] | –
O=C(Nc1ccc(S(=O)(=O)N2CCCC2)cc1)C1COc2ccccc2O1 (stereo unspecified) | – | inactive: 0.505%
COc1ccc(NC(=O)Cn2cnc3sc(C)c(S(=O)(=O)N4CCN(c5ccccc5OC)CC4)c3c2=O)cc1OC | inconclusive: 31.6 µM [activator, single point] | –
COc1ccc(S(=O)(=O)c2cn(CC(=O)Nc3cc(C)ccc3C)c3ccccc3c2=O)cc1 | – | inactive: -5.05%
